Data published in PubChem BioAssay AID686979 (National Center for Advancing Translational Sciences (NCATS), 2013).
Out of some 420,000 compounds screened, about 50,000 (12%) were called active. The inconclusive results got no clear call from the source; some entries with a clear call stand among them for comparison. The call rests on the fitted dose curve; in most records, active means well fitted inhibition curve with a large enough effect; inconclusive means small, poorly fitted or top-dose-only effect; inactive means flat fitted curve, though single readings scatter. Potencies of inconclusive entries are left out as doubtful fits.

experiment: qHTS for Inhibitors of human tyrosyl-DNA phosphodiesterase 1 (TDP1): qHTS in cells in presence of CPT; conditions: chicken DT40 Tdp1-/-;hTDP1 cells + 20 nM CPT, ATP luminescence, 48 h; activity change, negative = growth inhibition: at 46.2 µM (top of the series) unless noted; further: nearly all actives have a fitted effect of over 55% in size
How it was run: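 Chicken DT40 Tdp1-/- cells stably complemented with human TDP1 were seeded at 400 cells/well in medium containing 20 nM camptothecin, exposed to pin-transferred compounds, and grown at 37 °C for at least 48 hr. Viability was read as ATP luminescence.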
On the % scale 0 is the no-effect control and ±100 the full control effect; potency means the concentration at half of the fitted maximal effect; tags describe the fitted curve by direction and shape.

Row | Compound | Potency | activity change, negative = growth inhibition
1 | CC(/C=N/NC(=O)c1ccc2nc(C)[nH]c2c1)=C\c1ccccc1 | inconclusive [inhibitor, partial curve, poor fit] | 
2 | Cn1c(=O)c2[nH]c(COc3ccc(C(C)(C)C)cc3)nc2n(C)c1=O | active: 8.2 µM | 
3 | O=C(Cn1cnc(S(=O)(=O)N2CCCCC2)c1)N1CCN(c2ccc([N+](=O)[O-])cc2)CC1 | inconclusive [inhibitor, partial curve] | 
4 | COC(=O)c1ccc2oc(=O)c(S(=O)(=O)c3ccc(C)cc3)cc2c1 | inactive | 
5 | Cc1ccc(C(=O)N2CCC(C(=O)Nc3cccc([N+](=O)[O-])c3)CC2)cc1 | inactive | 
6 | Cc1ccc(C=C2C=C(c3ccccc3)OC2=O)cc1 | inconclusive [inhibitor, single point] | 
7 | Nc1c(Cl)cc(C2=NCCn3c2c2ccc(C(F)(F)F)cc2[n+]3[O-])cc1Cl | inconclusive [inhibitor, single point] | 
8 | COc1cc(C(=O)Nc2ccccc2N2CCOCC2)ccc1OCc1c(C)noc1C | inconclusive [inhibitor, single point] | 
9 | COCCNC(=O)c1c(N)n(CCC2=CCCCC2)c2nc3ccccc3nc12 | inconclusive [inhibitor, single point] | 
10 | Cc1nn(-c2ccccc2)c(C)c1NC(=O)CCl | inconclusive [inhibitor, single point] | 
11 | O=C(COc1ccc(C(=O)c2ccccc2)cc1)NCC1CCCCC1 | active: 16.4 µM | 
12 | CCn1c(CNC(=O)COc2ccc(C(C)C)cc2)nnc1SCC(=O)Nc1ccc(F)cc1 | inactive | 
13 | Cc1ccc(C2NNC(=O)C2NC(=O)c2ccccc2)cc1 (stereo not given) | inactive | 
14 | C/C(=N/NC(=O)CNC(=O)c1ccccn1)c1ccccc1 | inactive | 
15 | Cc1ccccc1CNC(=O)C(=O)NCC1OCCCN1S(=O)(=O)c1cccs1 (stereo not given) | inactive | 
16 | CCCNS(=O)(=O)c1ccc(CCC(=O)N2CCN(c3ccc(OC)cc3)CC2)cc1 | inconclusive [inhibitor, single point] | 
17 | Clc1ccc(-c2c[n+]3c(n2-c2ccccc2)SCC3)cc1 | inconclusive [inhibitor, single point] | 
18 | CC(Sc1ccc(Cl)cc1)C(=O)Nc1ccc(S(=O)(=O)N2CCOCC2)cc1 (stereo not given) | inconclusive [inhibitor, single point] | 
19 | Cc1cc(C(=O)OCC(=O)NCCc2ccccc2)c(C)o1 | inconclusive [inhibitor, full curve, poor fit] | 
20 | COc1ccc(-c2cc(-c3ccccc3)nc(SCC(=O)Nc3nccs3)c2C#N)cc1 | inconclusive [inhibitor, single point] | 
21 | CC1(C)CC(=O)C2=C(C1)OC(N)=C(C#N)C2C1C=CCCC1 (stereo not given) | inconclusive [inhibitor, single point] | 
22 | Cc1ccc(CNC(=O)C2CCN(c3nc4ccc(C)cc4[nH]3)CC2)cc1 | inconclusive [inhibitor, single point] | 
23 | Cc1ccc2[nH]c3c(c2c1)CCCC3NCCO (stereo not given) | inactive | 

Row | Compound | Potency | activity change, negative = growth inhibition
24 | O=C1OCCN1C(=O)[C@H]1[C@H](c2ccc([N+](=O)[O-])cc2)C(c2ccc(F)cc2)=NN1c1ccccc1 | inconclusive [inhibitor, partial curve] | 
25 | COc1ccc(N2CCN(C(=O)CNC(=O)Cc3ccc(Cl)cc3)CC2)cc1 | active: 5.17 µM | 
26 | CC(Sc1nc2ncc(Cl)cc2[nH]1)C(=O)NC1(C#N)CCCCC1 (stereo not given) | inconclusive [inhibitor, single point] | 
27 | NC(=O)c1ccccc1OCC(=O)N1CCCC1c1ccc2c(c1)OCCCO2 (stereo not given) |  | inconclusive: -30.2% [inhibitor]
28 | COc1ccc(S(=O)(=O)N(C)C[C@H]2Oc3ccc(NS(=O)(=O)c4ccccc4)cc3CC(=O)N([C@H](C)CO)C[C@@H]2C)cc1 | inconclusive [inhibitor, partial curve] | 
29 | CCc1n[nH]c(=S)n1/N=C/c1ccc(N(C)c2ccccc2)cc1 | inconclusive [inhibitor, single point] | 
30 | Cc1ccc2c(c1)c1c(c(=O)n(-c3cccc(Cl)c3)c(=O)n1C)n2C | inconclusive [inhibitor, full curve, poor fit] | 
31 | O=C(NCC(c1ccco1)N1CCN(c2ccc(F)cc2)CC1)c1ccc2c(c1)OCO2 (stereo not given) | inconclusive [inhibitor, single point] | 
32 | Cc1cc(C(=O)O)ccc1N=Cc1c(O)ccc2ccccc12 | inactive | 
33 | COc1ccc(CNC(=O)c2ccc(Sc3ccc(Cl)cc3)c(NC(C)=O)c2)c(OC)c1 | inconclusive [inhibitor, single point] | 
34 | CCN(CC)C(=O)c1cn(CCC#N)nc1-c1ccc(F)cc1 | inactive | 
35 | COCCCN1C(=O)C(O)=C(C(C)=O)C1c1cccc(F)c1 (stereo not given) | inactive | 
36 | COc1cc(/C=N/NC(=O)c2ccccn2)ccc1OC(=O)c1cccs1 | inactive | 
37 | Cc1cc(/C=C2/SC(=O)N(CC(=O)N3CCCC3)C2=O)c(C)n1C | inactive | 
38 | CC(C(=O)N1CCc2ccccc21)N1CCN(S(=O)(=O)c2cccc(C(F)(F)F)c2)CC1 (stereo not given) | inconclusive [inhibitor, single point] | 
39 | Cc1cccc(NC(=O)CSc2nnc(-c3ccc(S(=O)(=O)N4CCOCC4)cc3)n2C)c1 |  | inconclusive: -31.4% [inhibitor]
40 | O=C(NCC1CCCO1)/C(=C\c1ccco1)NC(=O)c1ccc(Cl)cc1 (stereo not given) | inactive | 
41 | CC(=O)Nc1ccc(-c2csc(NC(=O)Cc3cccc(F)c3)n2)cc1 | inconclusive [inhibitor, partial curve] | 
42 | COc1ccc(CN2CCNC(=O)C2CC(=O)NCCc2nc(C)c(C)s2)cc1C (stereo not given) | inactive | 
43 | c1ccc(C2Nc3cccc4cccc(c34)N2)cc1 | active: 18.4 µM | 
44 | c1ccc2c(c1)oc1c(NCCCn3ccnc3)ncnc12 | inconclusive [inhibitor, single point] | 
45 | N#CNC(=Nc1cccc(Cl)c1)Oc1ccccc1 |  | inconclusive: -30.8% [inhibitor]
